# The list shows a part of the results. These are noisy estimates, calculated here from bound and input reads.
# Target: T1, Pho4 (S. cerevisiae) (UniProt P07270)
# T1 sequence: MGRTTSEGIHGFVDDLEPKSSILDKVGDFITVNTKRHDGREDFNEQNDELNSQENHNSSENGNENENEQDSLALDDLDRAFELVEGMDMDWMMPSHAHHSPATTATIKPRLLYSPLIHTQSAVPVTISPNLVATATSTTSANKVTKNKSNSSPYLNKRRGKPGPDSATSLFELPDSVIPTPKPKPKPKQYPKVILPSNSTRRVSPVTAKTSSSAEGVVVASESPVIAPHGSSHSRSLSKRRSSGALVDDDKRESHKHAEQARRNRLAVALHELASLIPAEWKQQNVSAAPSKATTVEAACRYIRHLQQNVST
# Test: relative binding free energy (BET-seq); higher = weaker binding
# Details: reference: library average
row,Sequence,relative binding free energy [kcal/mol]
1,GAGTTCACGTGGGGAG,0.22
2,CGGGACACGTGATGTG,0.13
3,GCGGACACGTGCGGTT,0.07
4,TTATTCACGTGAGTGT,0.42
5,TGCGGCACGTGAAAGG,0.14
6,TGGTCCACGTGCTTTG,-0.05
7,AACGTCACGTGAGGGT,0.36
8,ATATTCACGTGGGCAG,0.12
9,TAGTACACGTGGACGG,-0.02
10,AGCGTCACGTGGACGG,0.05
11,ATGTGCACGTGTGTTA,-0.04
12,CGTTCCACGTGGGGGG,-0.06
13,TACGTCACGTGTCGTG,0.08
14,CGGTGCACGTGAATTT,0.28
15,AGGATCACGTGCCGGT,0.13
16,GGCACCACGTGTGGGA,0.05
17,TGAAACACGTGGGGGG,-0.15
18,TTGTGCACGTGAGAGA,0.11
19,GGTATCACGTGGGGGC,0.06
20,GGGTTCACGTGTGGGG,0.43
21,TTAACCACGTGTGTTG,-0.04
22,GTATTCACGTGAGCGG,0.2
23,CTTGTCACGTGAGTAT,0.2
24,GGGAACACGTGATTGT,0.26
25,GTGTCCACGTGATTTG,0.31

row,Sequence,relative binding free energy [kcal/mol]
1,CAAGGCACGTGTGGGG,-0.13
2,CTTGACACGTGGGGTA,-0.14
3,TTTTGCACGTGAATCA,0.21
4,TTGAGCACGTGAAGTA,0.26
5,AACGTCACGTGGTTGG,0.13
6,TGGGCCACGTGAATGT,0.08
7,GGGATCACGTGGCATT,0.06
8,TTCAGCACGTGGCTGG,-0.08
9,GGGGTCACGTGTTTAC,0.14
10,TGGTGCACGTGGTTCG,0.09
11,AGTGGCACGTGTTGCT,-0.2
12,GTTGTCACGTGCCGAG,0.09
13,TGGCTCACGTGAATGG,0.38
14,CGTGACACGTGTTTGA,0.04
15,CTTTTCACGTGGGGGT,0.13
16,CTATGCACGTGATTTG,0.14
17,AGTGGCACGTGGGTGT,-0.19
18,CTGGACACGTGGGTTG,-0.11
19,AGTGACACGTGACGGG,-0.05
20,GGTCGCACGTGGTTAA,-0.09
21,TATTTCACGTGGGGTT,0.19
22,AAATACACGTGTGAGT,0.15
23,TATCTCACGTGGTTGA,0.26
24,GTGGTCACGTGACGGG,0.29
25,TTTTTCACGTGATAAC,0.39

row,Sequence,relative binding free energy [kcal/mol]
1,GTATGCACGTGGAGCT,0
2,AGTGTCACGTGGATTA,0.08
3,GGGTTCACGTGAGCAG,0.37
4,TGGGGCACGTGCGAGA,-0.12
5,GGGGTCACGTGTTTCT,0.16
6,TGGTACACGTGGGCGT,-0.13
7,GGGACCACGTGTTATG,0.12
8,TGGACCACGTGGTGAT,-0.06
9,CTGTTCACGTGGAATG,0.36
10,TTTTTCACGTGATCGG,0.22
11,CTTATCACGTGGCTTG,0.1
12,CGGGGCACGTGTGGCT,-0.03
13,TAGGACACGTGTTGTT,0.02
14,TATCTCACGTGTTTAT,0.19
15,GCGATCACGTGGGGGT,0
16,TGAGTCACGTGGATAA,0.24
17,GGAGTCACGTGGCGGG,-0.02
18,TGTTGCACGTGACGGC,0.11
19,CCGTGCACGTGTGGGG,-0.02
20,GACTACACGTGGTGGG,0.18
21,GGCGGCACGTGTGTAT,0.14
22,CTTGTCACGTGAGGGA,0.24
23,CTATGCACGTGCGGGG,-0.15
24,GTAGACACGTGGTGGC,-0.05
25,GGTTGCACGTGAAATG,0.26

row,Sequence,relative binding free energy [kcal/mol]
1,GAGTTCACGTGATGAT,0.36
2,GCGTTCACGTGGGAGT,0.28
3,CTTTTCACGTGGGTCT,0.04
4,TAAGTCACGTGAAGTG,0.38
5,TTTTCCACGTGCTTGT,0.1
6,GGGAACACGTGTTGTT,0.16
7,GGGAACACGTGGCTTG,-0.04
8,CTGTGCACGTGGAATG,0.07
9,TAAGGCACGTGGTAGG,-0.23
10,TCTATCACGTGGTGTG,0.06
11,AAGTGCACGTGATGTG,0.18
12,TGAAACACGTGAAGTT,0.45
13,GACGACACGTGGAGGG,-0.02
14,CTGGTCACGTGACAGG,0.17
15,GTCTACACGTGAGGGT,0.4
16,TAAGTCACGTGAAGGT,0.31
17,GCATTCACGTGAGGGT,0.28
18,TTGTTCACGTGAATGG,0.34
19,TGGGGCACGTGTTCGT,-0.14
20,ACTATCACGTGTTGAG,0.17
21,TTAGACACGTGGTAGC,0
22,CTGTACACGTGGTGTT,-0.08
23,GGGGTCACGTGAAAGA,0.35
24,CTTGGCACGTGTATGG,-0.07
25,TATTGCACGTGGGACT,-0.07

row,Sequence,relative binding free energy [kcal/mol]
1,CGTTTCACGTGGAATT,0.49
2,GGATGCACGTGAGCTT,0.14
3,TGGGGCACGTGTGAAT,0.01
4,TGACTCACGTGTGTTG,0.12
5,TTGTACACGTGGTATT,0.02
6,TGCATCACGTGGGGGA,-0.11
7,GTCTGCACGTGAAGTT,0.38
8,GTGAGCACGTGATGAT,0.22
9,GTGTGCACGTGTATTC,-0.06
10,GGTCACACGTGGGGAC,0.13
11,GTATACACGTGGGGCC,0.07
12,GTGATCACGTGCATTG,0.13
13,CTTGGCACGTGCAGGG,-0.23
14,GATGGCACGTGAGAGG,0.22
15,TTTCTCACGTGTTATG,0.25
16,GGGGTCACGTGACGCG,0.11
17,CTAGGCACGTGGCTTG,-0.15
18,GGTTGCACGTGTCGCG,0.02
19,GGGTGCACGTGTTTTC,0.09
20,TCGAACACGTGGTGGG,-0.1
21,TGGAACACGTGTTGCA,0.01
22,ATTTGCACGTGGCAGA,0.07
23,GGGAGCACGTGCAGGC,-0.04
24,GGTATCACGTGAAGGT,0.31
25,GGAGTCACGTGTGGGA,0.17

row,Sequence,relative binding free energy [kcal/mol]
1,GATGGCACGTGGATTG,-0.06
2,AGTTTCACGTGAGGTT,0.33
3,TGGAACACGTGTAGAG,0.07
4,TGAAGCACGTGTGGTC,-0.12
5,GGTAGCACGTGATATT,0.11
6,TTGGGCACGTGAGATT,0.12
7,TCGTGCACGTGGCTGT,-0.22
8,TTGAGCACGTGTATTT,0.09
9,AGCTTCACGTGTGGCG,0.23
10,ATAATCACGTGGAGTG,-0.03
11,TTGGACACGTGCTGGA,0.06
12,AGGTTCACGTGATAGG,0.33
13,CTTGTCACGTGGTTAA,0.02
14,AGGCGCACGTGGTGGT,-0.29
15,TGTGACACGTGGTGCG,-0.18
16,CTTCGCACGTGGTTGT,-0.08
17,GTGAGCACGTGAAATG,0.35
18,TGTGGCACGTGGTAAC,-0.07
19,GGCTTCACGTGGGGAT,0.18
20,CAGATCACGTGGGGGT,-0.04
21,TCGTTCACGTGTGTGG,0.38
